# This is one part of the list.
# B1: PhoQ; a variant is named by its letters at X, in order, P23837 (parent)
# chain: MKKLLRLFFPLSLRVRFLLATAAVVLVLSLAYGMVALIGYSVSFDKTTFRLLRGESNLFYTLAKWENNKLHVELPENIDKQSPTMTLIYDENGQLLWAQRDVPWLMKMIQPDWLKSNGFHEIEADVNDTSLLLSGDHSIQQQLQEVREDDDDAEMTHSVAVNVYPATSRMPKLTIVVVDTIPVELKSSYMVWSWFIYVLSANLLLVIPLLWVAAWWSLRPIEALAKEVRELEEHNRELLNPATTRELTSLVRNLNRLLKSERERYDKYRTTLTDLTHSLKTPLXXLQXXLRSLRSEKMSVSDAEPVMLEQISRISQQIGYYLHRASMRGGTLLSRELHPVAPLLDNLTSALNKVYQRKGVNISLDISPEISFVGEQNDFVEVMGNVLDNACKYCLEFVEISARQTDEHLYIVVEDDGPGIPLSKREVIFDRGQRVDTLRPGQGVGLAVAREITEQYEGKIVAGESMLGGARMEVIFGRQHSAPKDE
# Variants of: B1
# Experiment: enrichment ratio after two sorts for PhoP signalling (ratio (wild type AVST 3.29)); higher = more functional
# Conditions: with PhoP (E. coli)
row,Variant,enrichment ratio
1,VGVW,≤ 0.25
2,QALS,1.44
3,PLFW,≤ 0.25
4,TFFT,≤ 0.25
5,HRWW,≤ 0.25
6,PAAA,≤ 0.25
7,GNYI,≤ 0.25
8,EFCT,≤ 0.25
9,TYRM,≤ 0.25
10,SDSM,1.33
11,PCRK,≤ 0.25
12,TQYN,10.7
13,VWYW,≤ 0.25
14,HLTG,1.04
15,MDSA,≤ 0.25
16,LNHC,≤ 0.25
17,NYGA,≤ 0.25
18,CTPI,≤ 0.25
19,FIPA,≤ 0.25
20,EVYD,≤ 0.25
21,IHYP,≤ 0.25
22,GWET,≤ 0.25
23,TGPT,≤ 0.25
24,MHIE,≤ 0.25

row,Variant,enrichment ratio
1,DRHQ,≤ 0.25
2,VSGY,≤ 0.25
3,HVWK,≤ 0.25
4,AEAP,≤ 0.25
5,QNAF,≤ 0.25
6,ASGL,8.91
7,QFRV,≤ 0.25
8,LHIF,≤ 0.25
9,GICR,3.93
10,WSAL,≤ 0.25
11,QFNQ,≤ 0.25
12,RHAV,≤ 0.25
13,SQPF,≤ 0.25
14,KYFV,≤ 0.25
15,GEAH,3
16,VCNI,≤ 0.25
17,HACY,≤ 0.25
18,PITA,≤ 0.25
19,DQTC,≤ 0.25
20,TTSV,15.8
21,TLTC,8.89
22,ARGC,≤ 0.25
23,QEHF,≤ 0.25
24,FHCL,≤ 0.25

row,Variant,enrichment ratio
1,LPSQ,≤ 0.25
2,DKCS,≤ 0.25
3,IREW,≤ 0.25
4,YWLE,≤ 0.25
5,HMDF,≤ 0.25
6,ERYL,≤ 0.25
7,MYLC,≤ 0.25
8,KHYC,≤ 0.25
9,SKKM,≤ 0.25
10,YWIG,≤ 0.25
11,NPIT,≤ 0.25
12,YTPP,≤ 0.25
13,EFAQ,≤ 0.25
14,EGQV,≤ 0.25
15,ELKN,≤ 0.25
16,HCVP,≤ 0.25
17,WEAH,≤ 0.25
18,LGSI,0.432
19,YIML,0.331
20,QAFR,≤ 0.25
21,VEDG,≤ 0.25
22,WSEN,≤ 0.25
23,LVFD,≤ 0.25
24,ESGY,≤ 0.25

row,Variant,enrichment ratio
1,SADG,≤ 0.25
2,RKTH,≤ 0.25
3,PACY,≤ 0.25
4,KIAI,≤ 0.25
5,DKDP,≤ 0.25
6,VPQC,≤ 0.25
7,NEPP,≤ 0.25
8,RHDD,≤ 0.25
9,ACWE,≤ 0.25
10,LHCW,≤ 0.25
11,KDDS,≤ 0.25
12,AQGW,≤ 0.25
13,QDYG,≤ 0.25
14,PPWY,≤ 0.25
15,WDLP,≤ 0.25
16,ERFW,≤ 0.25
17,GKIL,2.81
18,PIPN,≤ 0.25
19,LRDA,≤ 0.25
20,DCSV,≤ 0.25
21,VSQQ,≤ 0.25
22,KGFD,≤ 0.25
23,NTLD,≤ 0.25
24,KKYK,≤ 0.25

row,Variant,enrichment ratio
1,EIHA,≤ 0.25
2,IETI,≤ 0.25
3,LIGE,≤ 0.25
4,MKAF,≤ 0.25
5,SCVI,1.87
6,MMSL,6.66
7,LECG,1.47
8,HCRH,≤ 0.25
9,TQDA,≤ 0.25
10,IMTL,≤ 0.25
11,FYPH,≤ 0.25
12,NKFY,≤ 0.25
13,CLFC,≤ 0.25
14,VHAP,≤ 0.25
15,MPKK,≤ 0.25
16,TKGE,≤ 0.25
17,SELA,12.4
18,EGAV,≤ 0.25
19,SQMD,17.4
20,FTMQ,3.38
21,WYTA,≤ 0.25
22,HFFD,≤ 0.25
23,YMPL,≤ 0.25
24,HEPR,≤ 0.25

row,Variant,enrichment ratio
1,YWSG,≤ 0.25
2,QCVR,≤ 0.25
3,IAMY,≤ 0.25
4,IIQY,≤ 0.25
5,VHTF,≤ 0.25
6,ILRY,≤ 0.25
7,ELKT,≤ 0.25
8,ILLG,≤ 0.25
9,WCSC,≤ 0.25
10,TQVN,1.93
11,NLRQ,≤ 0.25
12,SGDM,≤ 0.25
13,LWQC,≤ 0.25
14,VRMF,≤ 0.25
15,PIMN,≤ 0.25
16,LENH,≤ 0.25
17,NVAY,≤ 0.25
18,NDGS,≤ 0.25
19,RIYH,≤ 0.25
20,LWIR,≤ 0.25
21,GMTV,0.937
22,PNWD,≤ 0.25
23,QHFM,7.08
24,NNAK,≤ 0.25

row,Variant,enrichment ratio
1,AFPY,≤ 0.25
2,KDAR,≤ 0.25
3,MTPE,≤ 0.25
4,SIFC,≤ 0.25
5,AVDP,≤ 0.25
6,TNNK,≤ 0.25
7,WGWS,≤ 0.25
8,FTVY,≤ 0.25
9,PTQF,≤ 0.25
10,GFWG,≤ 0.25
11,ERNY,≤ 0.25
12,ECSA,≤ 0.25
13,PYQF,≤ 0.25
14,DSDK,≤ 0.25
15,QDPD,≤ 0.25
16,VKMS,≤ 0.25
17,MLCN,≤ 0.25
18,VEAT,1.85
19,QPCK,≤ 0.25
20,IEWG,≤ 0.25
21,KHCG,≤ 0.25
22,YDTI,≤ 0.25
23,GYVA,≤ 0.25
24,LMDR,≤ 0.25

row,Variant,enrichment ratio
1,AKNH,≤ 0.25
2,LMFG,≤ 0.25
3,NFRR,≤ 0.25
4,DDRH,≤ 0.25
5,LMRH,≤ 0.25
6,MFAL,≤ 0.25
7,RFGY,≤ 0.25
8,IMCD,≤ 0.25
9,TLSL,15.8
10,TTSF,13.7
11,SVWE,≤ 0.25
12,RFDV,≤ 0.25
13,EPFK,≤ 0.25
14,SYHM,≤ 0.25
15,HKVS,≤ 0.25
16,NVIV,≤ 0.25
17,MYMC,≤ 0.25
18,HRCW,≤ 0.25
19,KPRA,≤ 0.25
20,QPCC,≤ 0.25
21,NLPQ,≤ 0.25
22,LHYN,≤ 0.25
23,YFKF,≤ 0.25
24,KDAC,≤ 0.25

row,Variant,enrichment ratio
1,RMHH,≤ 0.25
2,TLSP,≤ 0.25
3,FMLC,≤ 0.25
4,DQMV,≤ 0.25
5,LQTG,1.22
6,SWST,≤ 0.25
7,YMMP,≤ 0.25
8,SWET,≤ 0.25
9,AFIC,≤ 0.25
10,NHFR,≤ 0.25
11,KARH,≤ 0.25
12,NLTI,≤ 0.25
13,HHLK,≤ 0.25
14,DCVN,≤ 0.25
15,VRWL,≤ 0.25
16,PPHG,≤ 0.25
17,CMLI,≤ 0.25
18,MRER,≤ 0.25
19,FHEI,≤ 0.25
20,PDVA,≤ 0.25
21,FVAM,≤ 0.25
22,QMHW,≤ 0.25
23,PAFI,≤ 0.25
24,IFIR,≤ 0.25

row,Variant,enrichment ratio
1,LNSW,≤ 0.25
2,QHYS,≤ 0.25
3,KTCL,≤ 0.25
4,NIPM,≤ 0.25
5,WHSK,≤ 0.25
6,HLKV,≤ 0.25
7,NHFM,≤ 0.25
8,RADY,≤ 0.25
9,QPAR,≤ 0.25
10,VTKF,≤ 0.25
11,YNKF,≤ 0.25
12,FCPH,≤ 0.25
13,APDD,≤ 0.25
14,PDWA,≤ 0.25
15,AHLW,≤ 0.25
16,VEKM,≤ 0.25
17,YVTG,≤ 0.25
18,YWRQ,≤ 0.25
19,GMFN,≤ 0.25
20,IPGH,≤ 0.25
21,WCYW,≤ 0.25
22,WWIR,≤ 0.25
23,KGSK,≤ 0.25
24,DSPD,≤ 0.25

row,Variant,enrichment ratio
1,WQRE,≤ 0.25
2,PYWP,≤ 0.25
3,YTDY,≤ 0.25
4,DGVE,≤ 0.25
5,IRLW,≤ 0.25
6,MCTA,≤ 0.25
7,ARCD,≤ 0.25
8,PAFD,≤ 0.25
9,PMLA,≤ 0.25
10,PTRG,≤ 0.25
11,YQIR,≤ 0.25
12,EHQG,≤ 0.25
13,VPMY,≤ 0.25
14,VELH,0.876
15,PYIY,≤ 0.25
16,RHPV,≤ 0.25
17,IFCF,≤ 0.25
18,HSQM,0.399
19,QTDQ,≤ 0.25
20,ALEL,≤ 0.25
21,SSPK,≤ 0.25
22,MRCN,≤ 0.25
23,HCNW,≤ 0.25
24,QNAA,≤ 0.25

row,Variant,enrichment ratio
1,VMSA,≤ 0.25
2,YKYQ,≤ 0.25
3,KDPQ,≤ 0.25
4,DACI,≤ 0.25
5,FNWK,≤ 0.25
6,AEGG,≤ 0.25
7,LRKL,≤ 0.25
8,ISID,≤ 0.25
9,QFQN,≤ 0.25
10,WDKC,≤ 0.25
11,HGYW,≤ 0.25
12,RVTV,≤ 0.25
13,VRHW,≤ 0.25
14,AWRY,≤ 0.25
15,WIRM,≤ 0.25
16,EIRR,≤ 0.25
17,PFVF,≤ 0.25
18,THTR,≤ 0.25
19,CHIY,≤ 0.25
20,FTHV,≤ 0.25
21,RWMN,≤ 0.25
22,WVGP,≤ 0.25
23,LRLS,≤ 0.25
24,AGIY,7.17

row,Variant,enrichment ratio
1,MCNG,≤ 0.25
2,PYVW,≤ 0.25
3,MATS,≤ 0.25
4,FSIQ,≤ 0.25
5,EWVS,≤ 0.25
6,RLQN,≤ 0.25
7,NVFD,≤ 0.25
8,DQKA,≤ 0.25
9,EGKG,≤ 0.25
10,AVAI,4.58
11,MVAS,4.25
12,YGMR,≤ 0.25
13,FRWK,≤ 0.25
14,MGKW,≤ 0.25
15,HFES,≤ 0.25
16,RPCF,≤ 0.25
17,KYSL,≤ 0.25
18,QPGM,≤ 0.25

# From a collection of fitness landscapes (doi:10.1126/science.1257360)
